PubChem BioAssay AID540317 (National Center for Advancing Translational Sciences (NCATS), 2011)
In all, about 390,000 compounds went through this assay and about 2,200 (0.56%) were called active. The shares of active, inactive and inconclusive entries below differ from those in the screen. Calls come from the whole dose curve; as a rule, active = well fitted inhibition curve with a large enough effect; inconclusive = small, poorly fitted or top-dose-only effect; inactive = no such curve, though single readings can be large or run the other way. Potencies beside an inconclusive call are fits to weak or partial responses and may not hold up.
Note: nearly all actives have a fitted effect of over 70% in size.
Potency is the fitted concentration of half-maximal effect; tags give direction and shape of the fitted curve.

What follows are compounds tested against Chromobox protein homolog 1 (Homo sapiens) (UniProt P83916) (assay: HTS for Inhibitors of HP1-beta Chromodomain Interactions with Methylated Histone Tails). Settings: AlphaScreen HP1-beta / biotin-H3K9me3 peptide binding; series mostly up to 114 µM; activity change, negative = inhibition: at the top concentration.
Sequence of UniProt P83916 (P83916 whole entry, looked up): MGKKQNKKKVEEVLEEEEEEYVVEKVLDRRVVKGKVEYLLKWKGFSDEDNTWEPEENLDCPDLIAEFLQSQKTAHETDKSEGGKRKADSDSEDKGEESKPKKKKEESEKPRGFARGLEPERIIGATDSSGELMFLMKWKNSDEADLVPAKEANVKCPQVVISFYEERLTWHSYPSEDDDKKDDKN
Procedure, shortened: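 AlphaScreen: HP1-beta (50 nM) preformed 30 min with biotin-H3(1-18)K9me3 peptide (50 nM) in PBS pH 7.4, 0.01% Tween-20. Compound added for 30 min at RT, then streptavidin donor/nickel chelate acceptor beads (10 ug/mL) for 30 min.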
In the case of CCN(CC)c1ccc(CNc2ccc3c(c2)ncn3C(C)(C)C)cc1, the Potency is reported as inconclusive: 25.1 µM [inhibitor, full curve].
For CCCCS(=O)(=O)/C=C\C=C/S(=O)(=O)CCCC, the “activity change, negative = inhibition” value was inactive: -6.94%.
In the case of Cc1ccc(OCCOCCNC(C)C)c(Br)c1, the Potency is reported as inconclusive: 56.2 µM [inhibitor, single point].
For CCN(C(=O)Nc1cn(CC(C)C)c(=O)c2ccccc12)c1cc(C)ccc1C, the “activity change, negative = inhibition” value was inactive: -4.17%.
Cc1ccc(S(=O)(=O)N2CCN(C(=O)CN3CCN(c4ccc(O)cc4)CC3)CC2)cc1 was tested, and the Potency was inconclusive: 89.1 µM [inhibitor, single point].
O=C(NCc1ccccc1)C(c1ccco1)N(C(=O)c1csnn1)c1ccccc1F (centres undefined) was tested, and the Potency was inconclusive: 89.1 µM [inhibitor, single point].
In the case of Nc1ccc(-c2nc3ccc(N)cc3[nH]2)cc1, the Potency is reported as inconclusive: 50.1 µM [inhibitor, partial curve, poor fit].
With COc1cc(-n2ccnc2SC)c(Cl)cc1Cl the Potency was active: 22.4 µM.
For CC(=O)N1CCN(C(=S)c2ccc(Cl)cc2)CC1, the Potency was inconclusive: 35.5 µM [inhibitor, partial curve, poor fit].
For COc1cc(S(=O)(=O)NCCCN2CCOCC2)ccc1-n1cnnn1, the Potency was inconclusive: 14.1 µM [inhibitor, full curve].
With CCN(CC)Cc1cc(Nc2c3ccccc3nc3c4ccccc4n(C)c23)cc(CN(CC)CC)c1O the Potency was inconclusive: 14.1 µM [inhibitor, full curve, poor fit].
In the case of O=[N+]([O-])c1ccc(C2=Nn3c(Cn4nnc5ccccc54)nnc3SC2)cc1, the Potency is reported as inconclusive: 10 µM [inhibitor, full curve].
With C/C(=N/NS(=O)(=O)c1ccccc1)c1ccc(NC(=O)C2CC2)cc1 the “activity change, negative = inhibition” value was inactive: 19.7%.
CCN(CC)C(=O)Cn1cc(S(=O)(=O)CC(=O)Nc2ccccc2C)c2ccccc21 was tested, and the “activity change, negative = inhibition” value was inactive: 20%.
For O=[N+]([O-])c1cc(S(=O)(=O)N2CCCCC2)ccc1NCc1cccc(Cl)c1, the Potency was inconclusive: 39.8 µM [inhibitor, single point].
CCCC1C(=O)Nc2ccccc2N1C(=O)c1ccc(C(C)(C)C)cc1 (centres undefined) was tested, and the Potency was inconclusive: 79.4 µM [inhibitor, single point].
With CCN1CCCc2cc(CN(CCN3CCOCC3)C(=S)Nc3ccc(C)cc3)ccc21 the Potency was inconclusive: 22.4 µM [inhibitor, full curve].
O=C(c1cc(-c2ccccc2O)on1)N1CCCCC1 was tested, and the “activity change, negative = inhibition” value was inactive: 46.6%.
With CN1CCN(C(=O)CCN2C(=O)/C(=C\c3ccc(Cl)cc3Cl)SC2=S)CC1 the Potency was inconclusive: 20 µM [inhibitor, full curve].
In the case of NC(=O)/C(=C\c1ccco1)NC(=O)c1ccc(Br)o1, the “activity change, negative = inhibition” value is reported as inactive: 7.77%.
With Oc1ccc(/C=N/N2CCCCC2)cc1O the Potency was inconclusive: 50.1 µM [inhibitor, partial curve, poor fit].
O=C(c1ccccc1)c1ccc2nc(-c3ccco3)c(-c3ccco3)nc2c1 was tested, and the Potency was active: 15.8 µM.
Fc1ccc(NCc2nnc(SCc3nnc(-c4ccccc4)o3)n2Cc2ccccc2)cc1 was tested, and the Potency was inconclusive: 4.47 µM [inhibitor, full curve].
NC(=O)c1ccccc1NC(=O)CN1CCN(Cc2ccc(Cl)cc2Cl)CC1 was tested, and the “activity change, negative = inhibition” value was inactive: 0.241%.
In the case of Cc1ccc(-c2nn(-c3cccc(F)c3)cc2CN2CCN(c3ccccn3)CC2)o1, the Potency is reported as inconclusive: 14.1 µM [inhibitor, full curve].
In the case of CC1(C)OC(c2ccccc2)=C/C(=C/C=C2C(=O)c3ccccc3C2=O)O1, the Potency is reported as inconclusive: 3.16 µM [inhibitor, full curve].
With CC(=O)c1cccc(NC(=O)c2ccc(NC(=O)CC3SC(N4CCCCC4)=NC3=O)cc2)c1 (centres undefined) the “activity change, negative = inhibition” value was inactive: 16.1%.
With CCc1cc(OCCOCCN(C)C)ccc1Cl the Potency was inconclusive: 56.2 µM [inhibitor, partial curve, poor fit].
CN1C(=S)SC(/[N+]([O-])=C/c2ccc(Cl)cc2)C1(C)C (centres undefined) was tested, and the “activity change, negative = inhibition” value was inactive: -1.13%.
With CCOC(=O)c1c(NC(=O)c2c(C(=O)O)cccc2[N+](=O)[O-])sc2c1CCCC2 the Potency was inconclusive: 14.1 µM [inhibitor, full curve].
For O=C(Cn1c(=O)n(Cc2ccco2)c(=O)c2c3c(sc21)CCCC3)Nc1ccccc1, the Potency was inconclusive: 79.4 µM [inhibitor, single point].
With CN(c1ccccc1)c1nc(N)c([N+](=O)[O-])c(N2CCCCCC2)n1 the Potency was inconclusive: 44.7 µM [inhibitor, partial curve].
For O=C(c1cccnc1)N1CCN(Cc2cccc(Br)c2)CC1, the Potency was active: 50.1 µM.
In the case of CCCc1cc(=O)[nH]c2nnc(SCC(=O)Nc3ccc(C(C)=O)cc3)n12, the “activity change, negative = inhibition” value is reported as inactive: 55.1%.
Cc1sc(NC(=O)c2ccco2)nc1-c1ccc2c(c1)CC(C)N2C(=O)C1CC1 (centres undefined) was tested, and the Potency was inconclusive: 22.4 µM [inhibitor, partial curve, poor fit].
For COc1cccc(NCCC(=O)c2cccc([N+](=O)[O-])c2)c1, the Potency was active: 79.4 µM.
In the case of COC(=O)c1sc(=S)n(-c2ccccc2)c1N, the Potency is reported as inconclusive: 22.4 µM [inhibitor, full curve, poor fit].
With CC(C)(C)c1ccc(OCC(=O)NNC(=S)NC(=O)c2ccccc2[N+](=O)[O-])c(Br)c1 the Potency was inconclusive: 22.4 µM [inhibitor, partial curve, poor fit].
For COc1ccc(C2Nc3cccc4cccc(c34)N2)cc1Br, the Potency was inconclusive: 25.1 µM [inhibitor, partial curve, poor fit].
With Cc1[nH]c2ccccc2c1C1=CC(=O)C=CC1=O the Potency was inconclusive: 7.94 µM [inhibitor, full curve, poor fit].
With CC(C)C(=O)NC(=S)Nc1sc2c(c1C(N)=O)CCCC2 the Potency was inconclusive: 7.94 µM [inhibitor, full curve].
In the case of C=CCC1(O)CC(c2ccco2)NC(c2ccco2)C1CCC (centres undefined), the Potency is reported as inconclusive: 89.1 µM [inhibitor, single point].
With CC(=O)c1cccc(NC(=S)N2CCN(S(=O)(=O)c3ccccc3)CC2)c1 the Potency was inconclusive: 17.8 µM [inhibitor, full curve].
In the case of Cc1nn(CC(=O)N2CCN(c3ccccc3)CC2)c(=O)c2cc3sccc3n12, the “activity change, negative = inhibition” value is reported as inactive: 40.9%.
